Measurements reported in article PMC7891619.
No constants are given. Whether binding was seen depends on the method and setting. Binding seen in cells or lysates may run through a third protein. Some entries that bind do so weakly or less than the wild type. For some of these results: Sequences can lack the tags named with a protein.

Chains of the proteins cited; added tags and fusions are not shown. Lines headed by an entry give the natural chain unless they say otherwise; changes in a name come on top. A line that says so, or that is headed by a name, gives the form on record, which may keep a tag or linker. Residues count along the entry.
importin‐α‐myc (wild type) (Q02821, residues 1-530): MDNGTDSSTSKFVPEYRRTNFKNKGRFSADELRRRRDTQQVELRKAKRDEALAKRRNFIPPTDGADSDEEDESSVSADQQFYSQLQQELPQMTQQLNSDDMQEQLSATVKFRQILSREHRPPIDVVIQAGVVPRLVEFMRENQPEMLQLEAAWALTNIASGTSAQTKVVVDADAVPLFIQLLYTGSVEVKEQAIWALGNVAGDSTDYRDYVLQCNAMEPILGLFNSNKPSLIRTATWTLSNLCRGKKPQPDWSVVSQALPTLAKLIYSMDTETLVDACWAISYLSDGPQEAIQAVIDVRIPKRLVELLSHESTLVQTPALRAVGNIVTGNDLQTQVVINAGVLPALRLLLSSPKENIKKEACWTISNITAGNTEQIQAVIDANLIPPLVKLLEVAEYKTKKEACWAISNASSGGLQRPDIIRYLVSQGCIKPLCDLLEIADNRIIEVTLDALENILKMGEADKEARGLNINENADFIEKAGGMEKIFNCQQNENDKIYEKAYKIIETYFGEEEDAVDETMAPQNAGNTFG
R44A importin‐α‐myc (Q02821, form named): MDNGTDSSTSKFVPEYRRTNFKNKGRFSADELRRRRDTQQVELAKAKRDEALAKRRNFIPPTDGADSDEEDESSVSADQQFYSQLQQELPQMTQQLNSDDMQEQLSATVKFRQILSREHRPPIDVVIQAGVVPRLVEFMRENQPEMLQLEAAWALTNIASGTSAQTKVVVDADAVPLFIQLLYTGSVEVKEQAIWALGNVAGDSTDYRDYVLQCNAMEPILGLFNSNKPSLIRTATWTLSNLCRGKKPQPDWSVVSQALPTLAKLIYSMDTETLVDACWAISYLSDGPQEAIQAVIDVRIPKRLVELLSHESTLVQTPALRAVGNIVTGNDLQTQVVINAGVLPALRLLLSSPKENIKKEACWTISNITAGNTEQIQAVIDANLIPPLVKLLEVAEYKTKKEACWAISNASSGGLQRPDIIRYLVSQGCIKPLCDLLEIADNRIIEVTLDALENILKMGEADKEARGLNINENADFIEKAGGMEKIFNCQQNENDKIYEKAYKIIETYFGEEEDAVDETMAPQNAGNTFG
UniProt P32499: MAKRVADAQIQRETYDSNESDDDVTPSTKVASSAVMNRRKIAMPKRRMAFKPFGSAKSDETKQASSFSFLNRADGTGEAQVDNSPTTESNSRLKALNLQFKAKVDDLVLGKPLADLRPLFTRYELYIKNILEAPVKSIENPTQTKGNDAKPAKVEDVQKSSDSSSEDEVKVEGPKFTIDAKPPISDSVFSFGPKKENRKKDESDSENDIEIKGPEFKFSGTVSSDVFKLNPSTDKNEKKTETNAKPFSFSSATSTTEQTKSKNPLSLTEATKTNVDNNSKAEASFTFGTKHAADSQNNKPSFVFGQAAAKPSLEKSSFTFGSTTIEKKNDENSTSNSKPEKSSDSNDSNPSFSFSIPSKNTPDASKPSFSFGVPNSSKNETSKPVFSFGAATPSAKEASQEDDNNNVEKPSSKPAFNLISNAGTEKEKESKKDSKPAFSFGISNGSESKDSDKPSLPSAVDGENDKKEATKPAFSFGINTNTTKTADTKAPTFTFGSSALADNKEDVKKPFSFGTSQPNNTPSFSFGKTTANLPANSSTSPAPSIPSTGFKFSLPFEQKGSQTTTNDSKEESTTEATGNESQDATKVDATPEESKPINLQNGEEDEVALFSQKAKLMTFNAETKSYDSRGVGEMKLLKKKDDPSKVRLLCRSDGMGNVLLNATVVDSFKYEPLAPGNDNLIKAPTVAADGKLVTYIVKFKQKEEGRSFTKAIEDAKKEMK

Key:
[1] = target: importin‐α‐myc (wild type) (S. cerevisiae) (UniProt Q02821); experiment: co-IP; c‐myc beads incubated overnight with 1 mg lysate of yeast cells expressing both Nup2‐GFP (wild type or variant) and importin‐α‐myc, in 500 μL PBSMT; bound and unbound fractions blotted with α‐GFP and α‐myc
[2] = target: T1, Cse1‐GST (wild type) (S. cerevisiae) (UniProt P33307); experiment: pull-down; Cse1‐GST on glutathione‐Sepharose beads (50 μL slurry) incubated overnight with 2 mg total yeast lysate containing importin‐α‐myc variants; washed with PBSMT (PBS, 5 mM MgCl2, 0.5% Triton X‐100) and PBS; bound and unbound fractions blotted with α‐myc and α‐GST; only the target purified
T1 sequence: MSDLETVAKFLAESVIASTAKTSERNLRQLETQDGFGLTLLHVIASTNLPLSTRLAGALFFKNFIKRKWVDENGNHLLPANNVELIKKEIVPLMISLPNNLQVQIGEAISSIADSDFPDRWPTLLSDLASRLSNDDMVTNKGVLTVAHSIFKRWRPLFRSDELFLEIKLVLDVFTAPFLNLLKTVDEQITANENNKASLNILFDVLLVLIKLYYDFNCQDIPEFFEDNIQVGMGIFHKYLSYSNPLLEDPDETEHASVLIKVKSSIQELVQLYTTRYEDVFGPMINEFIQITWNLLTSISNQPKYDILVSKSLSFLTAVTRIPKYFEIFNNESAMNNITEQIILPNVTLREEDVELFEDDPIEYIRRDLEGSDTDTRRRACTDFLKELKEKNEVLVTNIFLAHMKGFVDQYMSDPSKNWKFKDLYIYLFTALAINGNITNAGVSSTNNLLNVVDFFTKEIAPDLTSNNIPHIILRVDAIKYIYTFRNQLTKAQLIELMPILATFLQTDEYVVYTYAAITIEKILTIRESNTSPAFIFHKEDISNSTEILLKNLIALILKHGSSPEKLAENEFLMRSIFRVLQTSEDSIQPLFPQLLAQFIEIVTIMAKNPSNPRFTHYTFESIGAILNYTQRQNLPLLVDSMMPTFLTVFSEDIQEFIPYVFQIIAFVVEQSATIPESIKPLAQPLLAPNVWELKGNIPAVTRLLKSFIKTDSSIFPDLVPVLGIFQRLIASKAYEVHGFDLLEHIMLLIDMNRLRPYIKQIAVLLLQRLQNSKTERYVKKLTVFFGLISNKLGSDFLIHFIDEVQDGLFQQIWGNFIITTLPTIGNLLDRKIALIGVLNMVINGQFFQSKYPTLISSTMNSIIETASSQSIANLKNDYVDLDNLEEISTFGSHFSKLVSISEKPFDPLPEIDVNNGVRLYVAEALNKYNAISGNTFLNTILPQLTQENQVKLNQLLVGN

| Substance | binding [1] | binding [2] |
| --- | --- | --- |
| K3E/R4D Nup2‐GFP (from UniProt P32499 1-720) | binds |  |
| K3E/R4D/R38A/R39A/R46A/R47A Nup2‐GFP (from UniProt P32499 1-720) | no binding |  |
| R44A importin‐α‐myc (from UniProt Q02821 1-530) |  | binds |
| Δ50 Nup2‐GFP (from UniProt P32499 51-720) (domain or fragment) | no binding |  |

Next, values leading:

| binding [1] | binding [2] | Substance |
| --- | --- | --- |
| binds |  | Nup2‐GFP (wild type) (from UniProt P32499 1-720) |
| binds |  | R38A/R39A/R46A/R47A Nup2‐GFP (from UniProt P32499 1-720) |
|  | binds | importin‐α‐myc (wild type) (from UniProt Q02821 1-530) |
